From PubChem BioAssay AID1963576 (National Center for Advancing Translational Sciences (NCATS), 2024) come the findings set out here.

Molecules are shown by their SMILES. Out of some 46,000 compounds screened, about 60 (0.1%) were called active. Another 3% or so got no clear call; they are omitted. Calls come from the whole dose curve; as a rule, active = well fitted inhibition curve with a large enough effect; inconclusive = small, poorly fitted or top-dose-only effect; inactive = no such curve, though single readings can be large or run the other way. This is one part of the list.

A short description of the experiment: Primary qHTS assay for Inhibitors of ovarian cancer metastasis using an organotypic tumor microenvironment (TME) model. Note: nearly all actives have a fitted effect of over 65% in size. The note with it: SKOV3ip1-GFP adhesion/invasion on 3D omental model, fluorescence; series mostly up to 45.8 µM; activity change, negative = inhibition: at the top concentration. An excerpt:
PI: Ernst Lengyel MD., Ph.D. Department of Obstetrics and Gynecology, Section of Gynecologic Oncology University of Chicago Medicine, Chicago, Illinois. The tumor microenvironment (TME) is a key determinant of metastatic efficiency. We performed a quantitative high-throughput screen (qHTS) of diverse medicinal chemistry tractable scaffolds (44,420 compounds) and pharmacologically active small molecules (386 compounds) using a layered organotypic, robust assay representing the ovarian cancer metastatic TME. This 3D model contains primary human mesothelial cells, fibroblasts, and extracellular matrix, to which fluorescently labeled ovarian cancer cells are added. Initially, 100 compounds inhibiting ovarian cancer adhesion/invasion to the 3D model in a dose-dependent manner were identified. Of those, eight compounds were confirmed active in five high-grade serous ovarian cancer cell lines and were further validated in secondary in vitro and in vivo biological assays. […] Specifically, NCGC00117362 and PP-121 inhibited ovarian cancer adhesion, invasion, and proliferation, whereas milciclib inhibited ovarian cancer invasion and proliferation. […] To evaluate the clinical potential of NCGC00117362, structure - activity relationship studies were performed. […] The three compounds identified have promise as therapeutics for prevention and treatment of ovarian cancer metastasis.
PROTOCOL TABLE (as described by Inglese J, Shamu CE and Guy RK. 2007) SEQUENCE No. (e.g., 1, 2, 3, etc.); […] (e.g., Cells, Incubation, Reagent, etc.); VALUE; DESCRIPTION. 1; Cells; 4 uL; primary human omental fibroblast, black, clear bottom, low base, 1536-well Aurora assay plate. 2; Incubation; 48 hr; 37C. 3; Cells; 3 uL; 1,200 SKOV3ip1-GFP cells. 4; Compounds; 23nL; acoustic dispenser. 5; Incubation; 2 hr; room temperature. 6; Incubation; 16 hr; 37C. 7; Wash; 5 uL; 1x PBS. 8; Fixing; 5 uL; 4% paraformaldehyde (PFA). 9; Incubation; 15 min; room temperature 10; Wash, 5 uL; 1x PBS. 11; Detection; Fluorescence, excitation filter 488 nm, emission filter 509 nm. NOTES (numbers refer to Sequence numbers above) 1. For the 1,536-well format, 40 primary human omental fibroblasts and 400 mesothelial cells were seeded with 0.02 µg fibronectin and 0.02 µg collagen type I in 4 µL of growth media (2.3 mm2; Supplementary Fig. S1A). 2. Assay plates were incubated for 48 hours at 37 C. 3. After incubation, 1,200 SKOV3ip1-GFP were seeded in 3 µL of serum-free media (growth media minus FBS) on top of primary human omental cells. 4. Compounds or controls were added to each well immediately after the addition of the cancer cells. Compounds were screened in four doses (0.36-46 µmol/L), and the plates contained the positive control (Tomatine) in eight doses (0.035-75 µmol/L) and DMSO (equal volume controls) 5 - 6. The plates were incubated at room temperature for 2 hours and then at 37 degrees C for 16 hours. 7 - 10. Following incubation, the media were aspirated and each well washed with PBS (5 µL) and then fixed with 4% paraformaldehyde (PFA; 5 µL). After 15 minutes, the PFA solution was aspirated, PBS (5 µL) was added. 11. The number of GFP-labeled cells analyzed using a fluorescent cytometer TTP LabTech Acumen eX3 using 488 nm excitation filter and 509 nm emission filter. Data was normalized to the DMSO treated for negative and Tomatine treated wells for positive control. REFERENCES: Inglese J, Shamu CE and Guy RK, Reporting data from high throughput screening of small molecule libraries, Nature Chemical Biology, 2007, 3(8): 438-441. doi.org/10.1038/nchembio0807-438. Yasgar A, Shinn P, Jadhav A, Auld DS, Michael S, Zheng W, Austin CP, Inglese J and Simeonov A, Compound Management for Quantitative High-Throughput Screening. J. Assoc. Lab. Auto., 2008, 13: 79-89. doi: 10.1016/j.jala.2007.12.004.
Background: qHTS replaces the single test concentration by a dilution series.
Turning to `COc1ccc(S(=O)(=O)N2CCC(c3nnc(-c4ccccc4C)o3)CC2)c(OC)c1`, the “activity change, negative = inhibition” value is inactive: -3.08%.

Take `Cc1noc2ncnc(N3CCCC(C(=O)NCCC(C)C)C3)c12` (configuration not stated): the “activity change, negative = inhibition” value is inactive: 11.4%. `COc1cc(C(=O)Nc2cccc(OCc3cc(=O)n4c(C)csc4n3)c2)cc(OC)c1OC`: the compound was called inactive. Turning to `COc1cccc(-n2cc(C(=O)Oc3ccc(F)cc3)c3ccccc3c2=O)c1`, the “activity change, negative = inhibition” value was inactive: 0.568%.

For `Cc1nn2c(=O)cc(COC(=O)c3ccccc3NC(=O)C(C)C)nc2s1`, the “activity change, negative = inhibition” value is inactive: 8.85%. In the case of `Cc1ccc(S(=O)(=O)c2c(Nc3ccccc3)sc(C(=O)c3ccc4c(c3)OCO4)c2N)cc1`, the “activity change, negative = inhibition” value was inactive: 88.8%.

Consider `O=C(C=Cc1ccc(/C=C/C(=O)Nc2ccc(C3=NCCN3)cc2)cc1)Nc1ccc(C2=NCCN2)cc1`, for which the “activity change, negative = inhibition” value is inactive: -5.48%. On the same count and under the same terms, to `CCCNC(=O)CCn1nc(-c2ccc(C)cc2)c2ccccc2c1=O` belongs inactive: 3.39%; to `COc1ccc(C)cc1S(=O)(=O)Nc1cccc(-c2ccc(N3CCCC3)nn2)c1`, inactive: -7.95%. On the same count and under the same terms, for `COc1ccc(OC)c(NC(=O)Cn2ccn(-c3ccc(F)cc3)c(=O)c2=O)c1` the value was inactive: 3.01%. Consider `COc1ccc(-c2nc(SCC(=O)NCC3CCCO3)c(-c3ccc(Cl)cc3)[nH]2)cc1` (configuration not stated), for which the compound was classed as inactive. In the case of `Cc1ccc(C(N)=O)cc1Nc1nccc(-c2cn(C(C)C)c3cnccc23)n1`, the “activity change, negative = inhibition” value was inactive: -13.1%. Same read-out and setting: to `Cc1ccc2ncc(C(=O)Nc3cccc(C(F)(F)F)c3)c(=O)n2c1` belongs inactive: 1.74%; to `CCc1ccc(OCC(=O)NCC(c2ccc(Cl)cc2)N2CCOCC2)cc1` (configuration not stated), inactive: -17.1%. The same measure, in the same setting: for `CCCC12CN3CC(C)(CN(C1)C3c1ccc(CC)cc1)C2=O` (configuration not stated) the value was inactive: 4.16%. Turning to `CCOC(=O)c1ccc2ncc(C(=O)OCC)c(NCCc3ccc(OC)c(OC)c3)c2c1`, the “activity change, negative = inhibition” value is inactive: 22%. Consider `CC(=O)OCC(=O)[C@@]1(O)CC[C@H]2[C@@H]3CCC4=CC(=O)C=C[C@]4(C)[C@@H]3[C@@H](O)C[C@@]21C`, for which the “activity change, negative = inhibition” value was inactive: 17.4%. In the case of `COc1ccccc1NC(=O)c1sc2cccc(Cl)c2c1Cl`, the “activity change, negative = inhibition” value was inactive: 14.8%. Still for that read-out and setting: to `CCOc1ccc(CCNC(=O)c2cc3c(=O)n(C)c4ccccc4c3s2)cc1OCC` belongs inactive: -15.3%; to `CC(C)c1ccc(NC(=O)c2cc3c(=O)oc4ccccc4c3s2)cc1`, inactive: -0.0479%.

`Cc1cccc(NC(=O)CSc2nc3ccccc3c3nc(CCn4cncc4C)nn23)c1`: the “activity change, negative = inhibition” value is inactive: -5.01%. The same measure, in the same setting: to `COc1ccc(N2CCN(C(CNC(=O)C(=O)NCc3ccc(C)cc3)c3cccnc3)CC2)cc1` (configuration not stated) belongs inactive: 5.32%. As for `Cc1ccccc1-c1nc(NC(=O)CSc2ncnc3sc4c(c23)CCCC4)ns1`, the compound was called inactive. The same measure, in the same setting: to `COc1cccc(N2CCN(C(=O)c3cnc4c(C)cccn4c3=O)CC2)c1` belongs “inactive”. `Cc1cccc(N2CCN(C(c3ccc(F)cc3)c3nnc(-c4ccccc4)o3)CC2)c1C` (configuration not stated): the “activity change, negative = inhibition” value was inactive: -1.14%. For `CCN1CCN(C(=O)Cn2ncc3c4ccccc4n(Cc4ccccc4F)c3c2=O)CC1`, the “activity change, negative = inhibition” value is inactive: 9.06%. `O=C(CC(c1cccs1)N1Cc2ccccc2C1=O)Nc1ccccc1` (configuration not stated): the call was inactive. As for `O=c1cc2nc(-c3ccccc3)nc(SCc3cccc(Br)c3)n2[nH]1`, the “activity change, negative = inhibition” value was inactive: 5.41%. Turning to `CCNC(=O)c1c(NC(=O)c2cc(=O)c3ccc(C)c(C)c3o2)sc2c1CCCC2`, the “activity change, negative = inhibition” value is inactive: -1.1%. `Cc1cccc(N2CCN(S(=O)(=O)c3ccc(F)c(C(=O)Nc4cccc(Cl)c4C)c3)CC2C)c1` (configuration not stated): the result was inactive. For the compound `CCCCN(CCCC)C(=O)c1cc2c(=O)n3ccccc3nc2s1`, the “activity change, negative = inhibition” value is inactive: -1.69%.

`Cc1ccc(Cl)cc1N1CCN(C(=O)C(C)n2ncn3cccc3c2=O)CC1` (configuration not stated): the “activity change, negative = inhibition” value was inactive: -1.69%.

Consider `Cc1cc(C(F)(F)F)c2c(N)c(C(=O)Nc3c(Cl)cccc3Cl)sc2n1`, for which the “activity change, negative = inhibition” value was inactive: 9.39%. For the compound `Cc1ccc2c(c1)-c1onc(C(=O)N3CCN(c4cccc(C)c4C)CC3)c1CO2`, the call was inactive. On to `O=C(CN1CCN(Cc2ccc(F)cc2)C1=O)NCc1ccccc1`, for which the “activity change, negative = inhibition” value was inactive: 9.09%. Regarding `Cc1cc(C)c(S(=O)(=O)NCC(c2ccco2)N2CCN(c3ccccc3)CC2)c(C)c1` (configuration not stated), the compound was classed as inactive. As for `Cc1ccc(-n2nc3c(=O)n(CCCC(=O)NCc4ccc(F)cc4)nc(C)c3c2C)cc1`, the “activity change, negative = inhibition” value was inactive: -10.6%.

Turning to `O=C(NCCSc1c(-c2ccc(Cl)cc2)[nH]c2ccccc12)c1ccc(S(=O)(=O)N2CCOCC2)cc1`, the “activity change, negative = inhibition” value was inactive: 4.55%. As to `COc1ccc(Nc2ncnc3c2cnn3C)c(OC)c1`, the “activity change, negative = inhibition” value was inactive: 0.967%. The same measure, in the same setting: to `Cc1nn(-c2ccccc2)c2c1cc1c(=O)[nH]c(=O)nc-1n2-c1cccc(C(F)(F)F)c1` belongs inactive: -7.51%.

In the case of `O=S(=O)(Nc1ccc(-c2ccc(N3CCCCCC3)nn2)cc1)c1ccc(C(F)(F)F)cc1`, the “activity change, negative = inhibition” value was inactive: 9.1%. For `COc1cccc(NC(=O)c2oc3ccc(S(=O)(=O)N4CCOCC4)cc3c2C)c1`, the outcome was inactive. On to `CC(C)OCCCNC(=O)CN1C(=O)CSc2ccc(S(=O)(=O)N3CCOCC3)cc21`, for which the “activity change, negative = inhibition” value was inactive: -2.31%. For the compound `C=Cc1ccc(Cn2c(C(=O)OC)cc3sc(C)cc32)cc1`, the “activity change, negative = inhibition” value is inactive: 4.73%. In the case of `COc1cccc(NC(=O)CC2Oc3ccccc3NC2=O)c1` (configuration not stated), the “activity change, negative = inhibition” value was inactive: 6.73%.

For `CC(=O)c1cccc(Nc2ncnc3c2cnn3-c2cccc(Cl)c2)c1`, the “activity change, negative = inhibition” value is inactive: -13.6%. On to `CC1CCCCN1S(=O)(=O)c1ccc2[nH]c(=O)cc(C(=O)NCCc3ccc(Cl)cc3)c2c1` (configuration not stated), for which the “activity change, negative = inhibition” value is inactive: -16.3%.
